Measured values reported in PMC8880864.
These are yes or no findings as the source states them, for the method shown. Some binding calls cover weakened binding; strength is not graded here.

T1: SpbK (full length) (B. subtilis (ICEBs1)) (UniProt P96648)
T1 sequence: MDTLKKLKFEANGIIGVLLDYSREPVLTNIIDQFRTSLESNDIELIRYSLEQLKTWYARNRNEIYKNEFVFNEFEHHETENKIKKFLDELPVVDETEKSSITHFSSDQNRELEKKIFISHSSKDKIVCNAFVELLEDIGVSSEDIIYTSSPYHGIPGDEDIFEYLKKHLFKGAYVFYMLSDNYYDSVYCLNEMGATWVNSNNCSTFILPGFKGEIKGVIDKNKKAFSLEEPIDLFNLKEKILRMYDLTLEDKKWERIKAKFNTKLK

T2: SpbK amino acids 97-266 (TIR domain) (B. subtilis (ICEBs1)) (UniProt P96648)
T2 sequence: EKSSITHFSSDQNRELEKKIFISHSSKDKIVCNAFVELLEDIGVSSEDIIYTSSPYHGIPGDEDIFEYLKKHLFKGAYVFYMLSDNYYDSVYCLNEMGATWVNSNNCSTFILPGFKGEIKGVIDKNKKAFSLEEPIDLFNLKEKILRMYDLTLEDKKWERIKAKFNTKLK


Tests used:
Assay in all cases: two-hybrid; GAL4 activation domain (pGAD-C1) and GAL4 DNA binding domain (pGBDU-C3) fusions in S. cerevisiae PJ69-4A; spotted on SD medium, scored for growth in the absence of adenine, 30 °C
[1] = molecular target: T1, SpbK (full length) (B. subtilis (ICEBs1))
[2] = molecular target: T2, SpbK amino acids 97-266 (TIR domain) (B. subtilis (ICEBs1))
[3] = molecular target: SpbK amino acids 1-104 (N-terminus) (B. subtilis (ICEBs1)) (UniProt P96648)

Binder | binding [1] | binding [2] | binding [3]
SpbK (full length) (protein, UniProt P96648 1-266) MDTLKKLKFEANGIIGVLLDYSREPVLTNIIDQFRTSLESNDIELIRYSLEQLKTWYARNRNEIYKNEFVFNEFEHHETENKIKKFLDELPVVDETEKSSITHFSSDQNRELEKKIFISHSSKDKIVCNAFVELLEDIGVSSEDIIYTSSPYHGIPGDEDIFEYLKKHLFKGAYVFYMLSDNYYDSVYCLNEMGATWVNSNNCSTFILPGFKGEIKGVIDKNKKAFSLEEPIDLFNLKEKILRMYDLTLEDKKWERIKAKFNTKLK | binds | – | –
SpbK amino acids 97-266 (TIR domain) (domain or fragment, UniProt P96648 97-266) EKSSITHFSSDQNRELEKKIFISHSSKDKIVCNAFVELLEDIGVSSEDIIYTSSPYHGIPGDEDIFEYLKKHLFKGAYVFYMLSDNYYDSVYCLNEMGATWVNSNNCSTFILPGFKGEIKGVIDKNKKAFSLEEPIDLFNLKEKILRMYDLTLEDKKWERIKAKFNTKLK | binds | binds | –
SpbK amino acids 1-104 (N-terminus) (domain or fragment, UniProt P96648 1-104) MDTLKKLKFEANGIIGVLLDYSREPVLTNIIDQFRTSLESNDIELIRYSLEQLKTWYARNRNEIYKNEFVFNEFEHHETENKIKKFLDELPVVDETEKSSITHF | no binding | no binding | no binding
